# Test results: the supplement of paper PMC11283458
# Counter-ions that a name gives are not always drawn. The list shows a part of the results. Most values come without repeats; read them as rough.
# Test system: Mef2d microexon dual Nano/Firefly luciferase splicing reporter in Neuro-2a cells
# Assay: B-score of Firefly/Nano luminescence ratio, V1 Mef2d microexon reporter (B-score (plate-normalised)); higher = more Mef2d microexon inclusion
# Details: 24 h
# 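Wherever B-score of Nano/Firefly luminescence ratio, V2 Mef2d microexon reporter is given: compounds at 4 µM (PKI library 0.5 µM) on Dox-inducible N2A Flp-In cells with PEST-tagged luciferases, 384-well plates, B-score from per-plate median-polish residual over median absolute residual.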
row,Structure (SMILES),B-score
1,Cc1nc(-c2ccccn2)nc(NCc2ccccc2)c1Cl (4 µM),2.02
2,Cc1cc(Nc2nc(N[C@@H](C)c3ccc(F)cc3)c(C#N)cc2F)n[nH]1 (0.5 µM),5
3,COc1cc(CCc2cc(NC(=O)c3ccc(N4CC(C)NC(C)C4)cc3)n[nH]2)cc(OC)c1 (stereo not drawn) (0.5 µM),5.67
4,c1ccc(C2=Nc3ccccc3NC(c3ccccc3)C2)cc1 (stereo not drawn) (4 µM),2.78
5,Cc1cc(NCc2ccc(-c3csc(C)n3)s2)n2ncnc2n1 (4 µM),-25.6
6,O=C(CCCCCN1C(=O)c2cccc3cccc(c23)C1=O)NO [Scriptaid] (4 µM),24.4
7,CSc1nn(-c2ccccc2)cc1C(=O)Sc1ccccn1 (4 µM),3.24
8,Cc1c(C(=O)ON=C(N)c2cc(C(F)(F)F)cc(C(F)(F)F)c2)sc2cc(C(C)(C)C)sc12 (4 µM),11
9,NC(CSc1ncccc1C(F)(F)F)=NOC(=O)c1ccc(Cl)cc1 (4 µM),3.18
10,Cc1cc(C(=O)NOCCO)c(Nc2ccc(I)cc2F)n(C)c1=O (0.5 µM),11.2
11,CNC(=S)N/N=C/c1ccccc1O (4 µM),17.7
12,COc1ccc(-c2cc3c(C)nc(N)nc3n([C@H]3CC[C@H](OCCO)CC3)c2=O)cn1 (0.5 µM),-5.23
13,"CN1CC[C@@H](c2c(O)cc(O)c3c(=O)cc(-c4ccccc4Cl)oc23)[C@@H]1CO [(+)-P276, P276-00, Riviciclib hydrochloride] (0.5 µM)",6.91
14,CC(=O)[C@]1(O)Cc2c(O)c3c(c(O)c2[C@@H](O[C@H]2C[C@H](N)[C@H](O)[C@H](C)O2)C1)C(=O)c1ccccc1C3=O (4 µM),-20
15,N#CC1(C#N)C(C#N)(C#N)C12CCCCC2 (4 µM),-1.28
16,CC1S(=O)C(C)S(=O)C(C)S1=O (stereo not drawn) (4 µM),-8.09
17,CNC(=O)c1cccc(-c2ccc3c(N4CCOC[C@@H]4C)nc(N4CCOC[C@@H]4C)nc3n2)c1 (0.5 µM),-6.88
18,CCn1c(-c2ccccc2)c(C(=O)CN2C(=O)NC(C)(C3CC3)C2=O)c2ccccc21 (stereo not drawn) (4 µM),2.24
19,COc1ccccc1C1CCN(c2ccc(C=CC(=O)NNC(=O)c3ccc(C(F)(F)F)cc3)cc2[N+](=O)[O-])CC1 (4 µM),8.18
20,CC[C@]1(O)C[C@@H]2CN(CCc3c([nH]c4ccccc34)[C@@](C(=O)OC)(c3cc4c(cc3OC)N(C)[C@H]3[C@@](O)(C(=O)OC)[C@H](OC(C)=O)[C@]5(CC)C=CCN6CC[C@]43[C@@H]65)C2)C1 [Vinblastine sulfate] (4 µM),-2.94

row,Structure (SMILES),B-score
1,C(=C\c1ccccc1)/C(=N/Nc1ccccc1)c1ccccc1 (4 µM),0.365
2,"Cn1c(=O)n(-c2ccc(C(C)(C)C#N)cc2)c2c3cc(-c4cnc5ccccc5c4)ccc3ncc21 [NVP-BEZ235, BEZ235, BEZ-235, Dactolisib] (0.5 µM)",-3.91
3,N#Cc1sccc1N(S(=O)(=O)c1cc(C(F)(F)F)cc(C(F)(F)F)c1)S(=O)(=O)c1cc(C(F)(F)F)cc(C(F)(F)F)c1 (4 µM),7.62
4,O=[N+]([O-])c1ccc(SC2=NCCS2)c([N+](=O)[O-])c1 (4 µM),-0.164
5,N#Cc1c(O)nsc1Nc1ccc(Cl)cc1 (4 µM),-2.19
6,CN(C)C(=O)n1nnnc1Cc1ccc(-c2ccccc2)cc1 (4 µM),-4.21
7,O=C(Nc1ccccc1)ON=C1CC2CCCC(C1)N2Cc1cccs1 (4 µM),11.4
8,COc1cccc2c1C(=O)c1c(O)c3c(c(O)c1C2=O)C[C@@](O)(C(=O)CO)C[C@@H]3O[C@H]1C[C@H](N)[C@H](O)[C@H](C)O1 [Doxorubicin hydrochloride] (4 µM),-9.08
9,O=C(NCCNc1ccc(C(F)(F)F)cn1)Nc1ccccc1Cl (4 µM),-21.8
10,CCCNC(=O)Nc1ccc(OC(F)(F)F)cc1 (4 µM),4.72
11,O=C(NOC[C@H](O)CO)c1ccc(F)c(F)c1Nc1ccc(I)cc1F (0.5 µM),4.57
12,CCCN(CCC)c1ccc2nonc2c1[N+](=O)[O-] (4 µM),-3.48
13,O=C(Nc1ccc(N2CCOCC2)cc1N1CCOCC1)c1cnn(-c2ccccc2)n1 (4 µM),7.05
14,"OCCNCCCOc1cccc(Cl)c1Cl [2,3-DCPE hydrochloride] (4 µM)",11.3
15,CC1=CC(C)(C)Nc2ccc(OC(=O)CN3C(=O)CCC3=O)cc21 (4 µM),-2.46
16,c1ccc2c(CN3CCSCC3)c[nH]c2c1 (4 µM),15.1
17,Cc1cccc(Cc2cnc(NC(=O)c3ccc(Br)cc3)s2)c1 (4 µM),-7.01
18,COc1ccc(C=C(C#N)c2ccc([N+](=O)[O-])cc2)cc1[N+](=O)[O-] (4 µM),6.58
19,NC(=NOC(=O)c1cc(-c2ccccc2)c(C(F)(F)F)s1)c1ccccc1 (4 µM),2.02

# Test system: Mef2d microexon dual Nano/Firefly luciferase splicing reporter in Neuro-2a cells
# Assay: B-score of Nano/Firefly luminescence ratio, V2 Mef2d microexon reporter (B-score (plate-normalised)); higher = more Mef2d microexon inclusion
# Details: 24 h
row,Structure (SMILES),B-score
1,Cc1nc(-c2ccccn2)nc(NCc2ccccc2)c1Cl (4 µM),2.03
2,Cc1cc(Nc2nc(N[C@@H](C)c3ccc(F)cc3)c(C#N)cc2F)n[nH]1 (0.5 µM),6.58
3,COc1cc(CCc2cc(NC(=O)c3ccc(N4CC(C)NC(C)C4)cc3)n[nH]2)cc(OC)c1 (stereo not drawn) (0.5 µM),10.9
4,c1ccc(C2=Nc3ccccc3NC(c3ccccc3)C2)cc1 (stereo not drawn) (4 µM),1.02
5,Cc1cc(NCc2ccc(-c3csc(C)n3)s2)n2ncnc2n1 (4 µM),-21.9
6,O=C(CCCCCN1C(=O)c2cccc3cccc(c23)C1=O)NO [Scriptaid] (4 µM),14.5
7,CSc1nn(-c2ccccc2)cc1C(=O)Sc1ccccn1 (4 µM),5.52
8,Cc1c(C(=O)ON=C(N)c2cc(C(F)(F)F)cc(C(F)(F)F)c2)sc2cc(C(C)(C)C)sc12 (4 µM),4.42
9,NC(CSc1ncccc1C(F)(F)F)=NOC(=O)c1ccc(Cl)cc1 (4 µM),1.3
10,Cc1cc(C(=O)NOCCO)c(Nc2ccc(I)cc2F)n(C)c1=O (0.5 µM),8.17
11,CNC(=S)N/N=C/c1ccccc1O (4 µM),28.5
12,COc1ccc(-c2cc3c(C)nc(N)nc3n([C@H]3CC[C@H](OCCO)CC3)c2=O)cn1 (0.5 µM),-5.67
13,"CN1CC[C@@H](c2c(O)cc(O)c3c(=O)cc(-c4ccccc4Cl)oc23)[C@@H]1CO [(+)-P276, P276-00, Riviciclib hydrochloride] (0.5 µM)",6.43
14,CC(=O)[C@]1(O)Cc2c(O)c3c(c(O)c2[C@@H](O[C@H]2C[C@H](N)[C@H](O)[C@H](C)O2)C1)C(=O)c1ccccc1C3=O (4 µM),-21.5
15,N#CC1(C#N)C(C#N)(C#N)C12CCCCC2 (4 µM),-8.65
16,CC1S(=O)C(C)S(=O)C(C)S1=O (stereo not drawn) (4 µM),-0.509
17,CNC(=O)c1cccc(-c2ccc3c(N4CCOC[C@@H]4C)nc(N4CCOC[C@@H]4C)nc3n2)c1 (0.5 µM),-6.19
18,CCn1c(-c2ccccc2)c(C(=O)CN2C(=O)NC(C)(C3CC3)C2=O)c2ccccc21 (stereo not drawn) (4 µM),6.16
19,COc1ccccc1C1CCN(c2ccc(C=CC(=O)NNC(=O)c3ccc(C(F)(F)F)cc3)cc2[N+](=O)[O-])CC1 (4 µM),2.51
20,CC[C@]1(O)C[C@@H]2CN(CCc3c([nH]c4ccccc34)[C@@](C(=O)OC)(c3cc4c(cc3OC)N(C)[C@H]3[C@@](O)(C(=O)OC)[C@H](OC(C)=O)[C@]5(CC)C=CCN6CC[C@]43[C@@H]65)C2)C1 [Vinblastine sulfate] (4 µM),-5.61

row,Structure (SMILES),B-score
1,C(=C\c1ccccc1)/C(=N/Nc1ccccc1)c1ccccc1 (4 µM),5.71
2,"Cn1c(=O)n(-c2ccc(C(C)(C)C#N)cc2)c2c3cc(-c4cnc5ccccc5c4)ccc3ncc21 [NVP-BEZ235, BEZ235, BEZ-235, Dactolisib] (0.5 µM)",-5.28
3,N#Cc1sccc1N(S(=O)(=O)c1cc(C(F)(F)F)cc(C(F)(F)F)c1)S(=O)(=O)c1cc(C(F)(F)F)cc(C(F)(F)F)c1 (4 µM),4.32
4,O=[N+]([O-])c1ccc(SC2=NCCS2)c([N+](=O)[O-])c1 (4 µM),-6.35
5,N#Cc1c(O)nsc1Nc1ccc(Cl)cc1 (4 µM),-1.29
6,CN(C)C(=O)n1nnnc1Cc1ccc(-c2ccccc2)cc1 (4 µM),-10.6
7,O=C(Nc1ccccc1)ON=C1CC2CCCC(C1)N2Cc1cccs1 (4 µM),4.7
8,COc1cccc2c1C(=O)c1c(O)c3c(c(O)c1C2=O)C[C@@](O)(C(=O)CO)C[C@@H]3O[C@H]1C[C@H](N)[C@H](O)[C@H](C)O1 [Doxorubicin hydrochloride] (4 µM),-9.87
9,O=C(NCCNc1ccc(C(F)(F)F)cn1)Nc1ccccc1Cl (4 µM),-28
10,CCCNC(=O)Nc1ccc(OC(F)(F)F)cc1 (4 µM),1.23
11,O=C(NOC[C@H](O)CO)c1ccc(F)c(F)c1Nc1ccc(I)cc1F (0.5 µM),3.8
12,CCCN(CCC)c1ccc2nonc2c1[N+](=O)[O-] (4 µM),-4.15
13,O=C(Nc1ccc(N2CCOCC2)cc1N1CCOCC1)c1cnn(-c2ccccc2)n1 (4 µM),10.2
14,"OCCNCCCOc1cccc(Cl)c1Cl [2,3-DCPE hydrochloride] (4 µM)",8.08
15,CC1=CC(C)(C)Nc2ccc(OC(=O)CN3C(=O)CCC3=O)cc21 (4 µM),-4.12
16,c1ccc2c(CN3CCSCC3)c[nH]c2c1 (4 µM),1.47
17,Cc1cccc(Cc2cnc(NC(=O)c3ccc(Br)cc3)s2)c1 (4 µM),-10.7
18,COc1ccc(C=C(C#N)c2ccc([N+](=O)[O-])cc2)cc1[N+](=O)[O-] (4 µM),11.5
19,NC(=NOC(=O)c1cc(-c2ccccc2)c(C(F)(F)F)s1)c1ccccc1 (4 µM),2.29
